Here are results for 54 molecules from ChEMBL document CHEMBL4888484, “Replenishing the malaria drug discovery pipeline: Screening and hit evaluation of the MMV Hit Generation Library 1 (HGL1) against asexual blood stage Plasmodium falciparum ,using a nano luciferase reporter read-out” (2022).

Out of some 150,000 compounds screened, about 540 (0.36%) showed an effect of 50% or more. This is one part of the list.

For orientation: % Inhibition means the relative decrease from the control value, in per cent.

In the experiment the test system is Plasmodium falciparum. Kind of experiment: Primary screen in NF54 nanoGlo assay, in single point, at 2uM, 72h; a lower Z score goes with more inhibition. The experiment is classed as functional, Erythrocyte. Conditions: timepoint 72 hour.
As for `O=C(c1cccnc1)N1CC(N(Cc2ccncc2)CC2CC2)C1`, the “% Inhibition” value is on record as -10% and the Z score worked out at 1.98.
For the molecule `Cc1nc(Nc2cccc(F)c2)sc1C(=O)Nc1ccc2c(c1)OCCO2`, the “% Inhibition” value is 0% and the Z score was found to be 0.04.
For `N#C[C@@H]1COCCN1C(=O)COCC(F)(F)F` the same measures were -2% and 0.29.
For `CCOc1ccc2c(c1)[C@@H](Nc1cc(C)nc(C3CC3)n1)CCO2` the same measures were 6% and -0.74.
For `Clc1ccc(OCC#CCNC[C@H]2CCCO2)cc1` the same measures were 3% and -0.57.
Turning to `O=C1C(NC(=O)N2CCO[C@H]3CCC[C@H]32)CCCN1CC(F)(F)F` (stereo partly drawn), the “% Inhibition” value is on record as 5% and the Z score is listed as -0.66.
In the same order, the values of `COCCO[C@H]1CN(C2CCN(C(=O)c3ccoc3)CC2)C12CCCCC2` are 7% and -1.14.
In the same order, the values of `CC(C)(C)c1nc2ccccn2c1-c1ccncc1` are -5% and 0.82.
In the same order, the values of `C[C@H](NC(=O)c1n[nH]c2c1CCCC2)c1ccccn1` are 32% and -3.67.
On to `OCCc1ccc(NCc2csc(C(F)(F)F)c2)cn1`, for which the “% Inhibition” value is reported as -11% and the Z score is 1.44.
For `CC(C)(C)OC[C@@H](O)CN1CCC(c2ccsc2)CC1` the same measures were 5% and -1.04.
For `COc1ccc(-c2nnc(-c3cccnc3NCCN(C)C3CCCCC3)o2)cc1` the same measures were -9% and 0.85.
For `Cc1noc(C)c1NC(=O)NCCOc1ccc(F)cc1F` the same measures were -2% and 0.33.
For the molecule `Cc1cnn(C2CCCC2)c1NC(=O)NCCCNc1cccnc1`, the “% Inhibition” value was -14% and the Z score amounted to 1.92.
In the same order, the values of `O=C(NC1CCS(=O)(=O)CC1)c1conc1-c1ccccc1` are -2% and 0.36.
For `O=C(CN1C(=O)CN(c2ccccc2)C1=O)c1ccc2c(c1)CCO2` the same measures were -7% and 1.19.
In the same order, the values of `C[C@@]1(c2nc(-c3ccccc3C(F)(F)F)no2)CCCO1` are -2% and 0.27.
Consider `COc1nc2c(cc1CNC(=O)c1cc(C)on1)C(=O)N(C1CCCC1)C2`, for which the “% Inhibition” value is -5% and the Z score amounted to 0.93.
Consider `COc1ccc(CNC(=O)c2cc3n(n2)C[C@@H](c2ccc4c(c2)OCO4)OC3)cc1`, for which the “% Inhibition” value is listed as -8% and the Z score turned out to be 1.3.
Regarding `CCOc1ccc(S(=O)(=O)Cc2n[nH]c(CC)n2)cc1`, the “% Inhibition” value is listed as 6% and the Z score is -1.06.
For `Cc1ccccc1C(=O)NCC[C@H](O)C(C)(C)C` the same measures were -6% and 0.97.
In the same order, the values of `COc1cc(NC(=O)N2CCC[C@@H]2CS(C)(=O)=O)cnc1OC` are 0% and 0.01.
For `CN1CCC=C(CN(C[C@@H]2CCC(=O)N2)C(=O)C2CCCCC2)C1` the same measures were 0% and -0.01.
As for `O=C1CN(Cc2ccccc2)C(=O)[C@@H](Cc2c[nH]c3ccccc23)N1`, the “% Inhibition” value came to 7% and the Z score is -1.47.
In the same order, the values of `NC(=O)N1CC[C@H](NC(=O)c2ccc(Cl)o2)C1` are 2% and -0.16.
In the same order, the values of `COc1ccc(-c2cc3n(n2)CCC(=O)N3Cc2ccc(C(=O)NCCC(C)C)cc2)cc1` are 6% and -0.71.
In the same order, the values of `CC(=O)c1ccc(OC2(C(=O)O)CCN(C3CCCCCC3)CC2)cc1` are 9% and -1.27.
As to `Cc1nc(-c2cccs2)sc1C(=O)N1CCC[C@](C)(CO)C1`, the “% Inhibition” value is -21% and the Z score worked out at 2.37.
For `O=C(CCCCc1ccccc1)N1CCC(O)(CN2CCCC2)CC1` the same measures were -32% and 2.79.
In the same order, the values of `CCOC(=O)N1CCC2(CC1)N=C(c1ccccc1O)C[C@@H](c1cc(F)ccc1F)N2` are -2% and 0.3.
For `Cc1ccc2nc(NC(=O)CCC(=O)c3ccccc3)sc2c1` the same measures were 1% and -0.05.
As for `O=c1[nH]nc(Cn2ccnc2C2CC2)s1`, the “% Inhibition” value is recorded as -7% and the Z score stood at 0.69.
Regarding `COc1cccc2c(C(=O)N3CCN(C)CC3(C)C)n[nH]c12`, the “% Inhibition” value stood at 4% and the Z score is listed as -0.56.
Consider `O=C(CC12CCCCC1C2(F)F)Nc1ccccc1Nc1ccncc1` (stereo not drawn), for which the “% Inhibition” value is recorded as -9% and the Z score was determined as 1.36.
In the same order, the values of `CCCN(C(=O)C1CCCc2nn(C)cc21)C1CC(=O)N(C)C1=O` (stereo not drawn) are -22% and 2.99.
As for `Cc1nc(C)n(CCc2nc3c([nH]2)C[C@H](c2ccc(Cl)cc2)CNC3=O)n1`, the “% Inhibition” value was -9% and the Z score is on record as 1.39.
In the same order, the values of `COCCN1CCC(CN(Cc2ccncc2)Cc2nc3ccccc3n2C)CC1` are 0% and 0.04.
Regarding `NS(=O)(=O)Cc1ccc(Br)cc1F`, the “% Inhibition” value is given as -9% and the Z score amounted to 1.35.
For `CC1(C)[C@H]2CC=C(CN3C[C@@H]4[C@H](C3)[C@H]4C(=O)NCc3ccccn3)[C@@H]1C2` the same measures were -12% and 1.16.
For `COc1ncccc1CN(C)C1(CO)CCOCC1` the same measures were -8% and 0.84.
For `Cc1cccn2cc(CN3CCN(C(=O)c4ccc(-c5ccccc5)cc4)CCC3=O)nc12` the same measures were -12% and 1.31.
`Cc1[nH]nc(CN[C@H]2CCO[C@@H]2c2cc[nH]n2)c1C`: the “% Inhibition” value turned out to be 4% and the Z score was -0.7.
In the same order, the values of `COc1ccc(-c2cc3c(N4CCCCCC4)nccn3n2)cc1OC` are 28% and -3.79.
For `CCC(CC)CN(CC)C(=O)c1ncc(Br)s1` the same measures were -9% and 0.8.
For `CC(C)[C@@H]1NC(=O)N(Cc2ccc3nonc3c2)C1=O` the same measures were -21% and 2.42.
Take `COc1ccc([C@H](C)NC(=O)c2nn(-c3ccc(F)cc3)c3ccccc3c2=O)cc1OC`: the “% Inhibition” value is recorded as -2% and the Z score was 0.3.
In the same order, the values of `COCCNC(=O)[C@@]12CCCC[C@H]1N(C1CC1)S(=O)(=O)CC2` are -7% and 0.8.
In the same order, the values of `CCCS(=O)(=O)N1CCC[C@H](C(=O)Nc2nc(CC(=O)OCC)cs2)C1` are -3% and 0.38.
For the molecule `CC[C@H](NCc1nc(-c2ccncn2)no1)c1ccc(C)cc1`, the “% Inhibition” value is -6% and the Z score was determined as 0.76.
In the same order, the values of `COCc1nn(CC(=O)NC2CCC2)c(=O)n1-c1ccc2c(c1)OCO2` are 18% and -1.68.
In the same order, the values of `Cn1ccnc(N2CCN(CCCOCC(F)(F)F)CC2)c1=O` are -6% and 1.21.
In the same order, the values of `CC1CCN(C(=O)Cc2csc(NC(=O)c3cccc(O)c3)n2)CC(C)C1` (stereo not drawn) are 35% and -4.49.
`O=C(NS(=O)(=O)[C@H]1CCCOC1)c1cc(F)cc(F)c1`: the “% Inhibition” value is -10% and the Z score worked out at 1.96.
For the molecule `NC(=O)c1ccc(S(=O)(=O)N2CCN(Cc3ccc4c(c3)CCO4)CC2)cc1`, the “% Inhibition” value is -14% and the Z score came out at 2.2.
